Changes are numbered by the printed parent chain; changes in the protein carry UniProt numbers. The list shows a part of the results.
T1: RBFOX1 RRM RbFoxmut (Fox-RRM*) (Homo sapiens, UniProt Q9NWB1 109-208, R118D;E147R;N151S;E152T)
T1 sequence: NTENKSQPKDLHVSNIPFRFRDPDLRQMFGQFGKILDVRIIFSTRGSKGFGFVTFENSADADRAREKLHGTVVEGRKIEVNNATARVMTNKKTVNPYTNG

B1: GCAGCCG (DNA:RNA)
RNA: GGGAGACCGGAAUUCAGAUUGUCCGCAGCCGUUAAAUCCCGUCGUAGCCACCA
DNA 1: CAATCTGAATTCCGGTCTCCC
DNA 2: TGGTGGCTACGACGGGATT
B2: CGAGCGC (DNA:RNA)
RNA: B1 RNA with G25C, C26G, C30G, G31C
DNA 1: CAATCTGAATTCCGGTCTCCC
DNA 2: TGGTGGCTACGACGGGATT
B3: AGAGUUG (DNA:RNA)
RNA: B1 RNA with G25A, C26G, C29U, C30U
DNA 1: CAATCTGAATTCCGGTCTCCC
DNA 2: TGGTGGCTACGACGGGATT
B4: AGAUCGU (DNA:RNA)
RNA: B1 RNA with G25A, C26G, G28U, C30G, G31U
DNA 1: CAATCTGAATTCCGGTCTCCC
DNA 2: TGGTGGCTACGACGGGATT
B5: AUAGUUU (DNA:RNA)
RNA: B1 RNA with G25A, C26U, C29U, C30U, G31U
DNA 1: CAATCTGAATTCCGGTCTCCC
DNA 2: TGGTGGCTACGACGGGATT
B6: CUUCUAU (DNA:RNA)
RNA: GGGAGACCGGAAUUCAGAUUGUCCCUUCUAUUUAAAUCCCGUCGUAGCCACCA
DNA 1: CAATCTGAATTCCGGTCTCCC
DNA 2: TGGTGGCTACGACGGGATT
B7: AUCACAA (DNA:RNA)
RNA: B6 RNA with C25A, U27C, C28A, U29C, U31A
DNA 1: CAATCTGAATTCCGGTCTCCC
DNA 2: TGGTGGCTACGACGGGATT
B8: UUCGCGG (DNA:RNA)
RNA: B1 RNA with G25U, C26U, A27C, C30G
DNA 1: CAATCTGAATTCCGGTCTCCC
DNA 2: TGGTGGCTACGACGGGATT
B9: AAAGAUA (DNA:RNA)
RNA: B1 RNA with G25A, C26A, C29A, C30U, G31A
DNA 1: CAATCTGAATTCCGGTCTCCC
DNA 2: TGGTGGCTACGACGGGATT

The binders below were run against T1, RBFOX1 RRM RbFoxmut (Fox-RRM*) (assay: EMSA; HiTS-Eq, 1 nM pool, 10 min; buffer printed only for the single-RNA assays: 10 mM Tris pH 7.5, 150 mM NaCl, 3.4 mM EDTA, 0.001% NP-40, 30 C). Details: tags: His6 N-terminal (pET28a); label: 5' 32P.
In short: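 Purified RbFox RRM, wild type or mutant, was incubated for 10 min in 50 µL with 1 nM of a 5′-radiolabelled RNA pool carrying 7 randomized nucleotides, whose flanks were annealed to DNA oligonucleotides, over a series of increasing protein concentrations. Unbound RNA was resolved on 8% native PAGE, cut out, reverse-transcribed, barcoded by PCR and sequenced on an Illumina HiSeq 2500. Relative association constants were derived from changes in read counts for each RNA species versus the control reaction and normalised to the cognate motif.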

Compared with B1, B2 is higher in binding signal: 0.0852 KA relative to UGCAUGU for the first, 0.103 KA relative to UGCAUGU for the second.

First: B3
Second: B4
The binding signal of the first is higher: 0.163 KA relative to UGCAUGU for the first, 0.105 KA relative to UGCAUGU for the second.

First: B5
Second: B6
The binding signal of the first is higher: 0.135 KA relative to UGCAUGU for the first, 0.121 KA relative to UGCAUGU for the second.

First: B7
Second: B8
The binding signal of the first is higher: 0.0834 KA relative to UGCAUGU for the first, 0.0745 KA relative to UGCAUGU for the second.

In the case of B9, the binding signal is reported as 0.0943 KA relative to UGCAUGU.
